Experimental data: paper PMC12820563, “FoxP3 forms a head-to-head dimer in vivo and stabilizes its multimerization on adjacent microsatellites”
Some of the results follow.

target: T1, MBP-FoxP1dN (Mus musculus, UniProt P58462 326-579); test: PD-seq (MBP pull-down with sequencing); 20 mM Tris-HCl pH 7.5, 100 mM NaCl, 1.5 mM MgCl2, 0.4 uM protein, 0.1 uM dsDNA library, 30 min, room temperature, amylose pull-down; high values mean tight binding; settings: protein: recombinant; tags: His6-MBP; chain copies: 2; dsDNA, one strand shown
T1 sequence: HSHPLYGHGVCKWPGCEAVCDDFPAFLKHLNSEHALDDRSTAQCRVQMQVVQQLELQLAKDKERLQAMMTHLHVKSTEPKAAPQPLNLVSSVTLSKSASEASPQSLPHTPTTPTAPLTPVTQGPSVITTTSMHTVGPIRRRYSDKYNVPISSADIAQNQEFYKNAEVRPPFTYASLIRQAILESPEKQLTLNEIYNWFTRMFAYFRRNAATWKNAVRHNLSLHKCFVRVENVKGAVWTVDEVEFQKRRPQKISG
Summary of the method: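 Binding is reads-per-million enrichment of pull-down over input, with replicates pooled. It comes from 30 min room-temperature incubation in Tris pH 7.5 buffer with NaCl and MgCl2 of 0.4 µM His6-MBP-tagged, N-terminally truncated mouse FoxP3 or FoxP1 fragment from E. coli with 0.1 µM Klenow-filled degenerate double-stranded DNA library, followed by amylose resin capture, three washes and Illumina sequencing of the released DNA.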

| Sequence | binding signal |
| --- | --- |
| GATGATTGTTCTCCCAGCTGATGAATTTTGAAGCTCGAGTAAACAAATTTTCCTAATCTTTCTGTTCAAGCGCCATCTAC | 0.831 RPM ratio (pull-down/input) |
| GATGATTGTTCTCCCAGCTGATGAATTTGTGCATTCGAGTAAACAAATTTTCCTAATCTTTCTGTTCAAGCGCCATCTAC | 1.64 RPM ratio (pull-down/input) |
| GATGATTGTTCTCCCAGCTGATGAATTGCTCCGTTCGAGTAAACAAATTTTCCTAATCTTTCTGTTCAAGCGCCATCTAC | 0.977 RPM ratio (pull-down/input) |
| GATGATTGTTCTCCCAGCTGATGAATTGGAACCTTCGAGTAAACAAATTTTCCTAATCTTTCTGTTCAAGCGCCATCTAC | 0.816 RPM ratio (pull-down/input) |
| GATGATTGTTCTCCCAGCTGATGAATTACCAGGTTCGAGTAAACAAATTTTCCTAATCTTTCTGTTCAAGCGCCATCTAC | 0.873 RPM ratio (pull-down/input) |
| GATGATTGTTCTCCCAGCTGATGAATTAGTCTCATCGAGTAAACAAATTTTCCTAATCTTTCTGTTCAAGCGCCATCTAC | 1.03 RPM ratio (pull-down/input) |
| GATGATTGTTCTCCCAGCTGATGAATTTACTCCCTCGAGTAAACAAATTTTCCTAATCTTTCTGTTCAAGCGCCATCTAC | 1.21 RPM ratio (pull-down/input) |
| GATGATTGTTCTCCCAGCTGATGAATTGACCAAATCGAGTAAACAAATTTTCCTAATCTTTCTGTTCAAGCGCCATCTAC | 1.22 RPM ratio (pull-down/input) |
| GATGATTGTTCTCCCAGCTGATGAATTTACCTCGTCGAGTAAACAAATTTTCCTAATCTTTCTGTTCAAGCGCCATCTAC | 1.12 RPM ratio (pull-down/input) |
| GATGATTGTTCTCCCAGCTGATGAATTCCACGTTTCGAGTAAACAAATTTTCCTAATCTTTCTGTTCAAGCGCCATCTAC | 0.878 RPM ratio (pull-down/input) |
| GATGATTGTTCTCCCAGCTGATGAATTTGGTTGATCGAGTAAACAAATTTTCCTAATCTTTCTGTTCAAGCGCCATCTAC | 1.15 RPM ratio (pull-down/input) |
| GATGATTGTTCTCCCAGCTGATGAATTGAACCCGTCGAGTAAACAAATTTTCCTAATCTTTCTGTTCAAGCGCCATCTAC | 0.83 RPM ratio (pull-down/input) |
| GATGATTGTTCTCCCAGCTGATGAATTAGCGGGCTCGAGTAAACAAATTTTCCTAATCTTTCTGTTCAAGCGCCATCTAC | 0.765 RPM ratio (pull-down/input) |
| GATGATTGTTCTCCCAGCTGATGAATTGTATTCCTCGAGTAAACAAATTTTCCTAATCTTTCTGTTCAAGCGCCATCTAC | 1.17 RPM ratio (pull-down/input) |
| GATGATTGTTCTCCCAGCTGATGAATTGGCACGGTCGAGTAAACAAATTTTCCTAATCTTTCTGTTCAAGCGCCATCTAC | 0.782 RPM ratio (pull-down/input) |
| GATGATTGTTCTCCCAGCTGATGAATTACAGGCTTCGAGTAAACAAATTTTCCTAATCTTTCTGTTCAAGCGCCATCTAC | 1.09 RPM ratio (pull-down/input) |
| GATGATTGTTCTCCCAGCTGATGAATTCTCATGATCGAGTAAACAAATTTTCCTAATCTTTCTGTTCAAGCGCCATCTAC | 0.956 RPM ratio (pull-down/input) |
| GATGATTGTTCTCCCAGCTGATGAATTAAATGTTTCGAGTAAACAAATTTTCCTAATCTTTCTGTTCAAGCGCCATCTAC | 1.3 RPM ratio (pull-down/input) |
| GATGATTGTTCTCCCAGCTGATGAATTACTGTTATCGAGTAAACAAATTTTCCTAATCTTTCTGTTCAAGCGCCATCTAC | 1.66 RPM ratio (pull-down/input) |
| GATGATTGTTCTCCCAGCTGATGAATTAAGGTTCTCGAGTAAACAAATTTTCCTAATCTTTCTGTTCAAGCGCCATCTAC | 0.765 RPM ratio (pull-down/input) |
| GATGATTGTTCTCCCAGCTGATGAATTTCTTCTATCGAGTAAACAAATTTTCCTAATCTTTCTGTTCAAGCGCCATCTAC | 0.948 RPM ratio (pull-down/input) |

| Sequence | binding signal |
| --- | --- |
| GATGATTGTTCTCCCAGCTGATGAATTATCGAGATCGAGTAAACAAATTTTCCTAATCTTTCTGTTCAAGCGCCATCTAC | 0.904 RPM ratio (pull-down/input) |
| GATGATTGTTCTCCCAGCTGATGAATTGAGGCACTCGAGTAAACAAATTTTCCTAATCTTTCTGTTCAAGCGCCATCTAC | 1.04 RPM ratio (pull-down/input) |
| GATGATTGTTCTCCCAGCTGATGAATTTCATCCGTCGAGTAAACAAATTTTCCTAATCTTTCTGTTCAAGCGCCATCTAC | 0.884 RPM ratio (pull-down/input) |
| GATGATTGTTCTCCCAGCTGATGAATTAGTGTTCTCGAGTAAACAAATTTTCCTAATCTTTCTGTTCAAGCGCCATCTAC | 0.976 RPM ratio (pull-down/input) |
| GATGATTGTTCTCCCAGCTGATGAATTCTACTACTCGAGTAAACAAATTTTCCTAATCTTTCTGTTCAAGCGCCATCTAC | 0.905 RPM ratio (pull-down/input) |
| GATGATTGTTCTCCCAGCTGATGAATTCATACTGTCGAGTAAACAAATTTTCCTAATCTTTCTGTTCAAGCGCCATCTAC | 0.925 RPM ratio (pull-down/input) |
| GATGATTGTTCTCCCAGCTGATGAATTGAATTGTTCGAGTAAACAAATTTTCCTAATCTTTCTGTTCAAGCGCCATCTAC | 0.984 RPM ratio (pull-down/input) |
| GATGATTGTTCTCCCAGCTGATGAATTCGTCTGCTCGAGTAAACAAATTTTCCTAATCTTTCTGTTCAAGCGCCATCTAC | 0.792 RPM ratio (pull-down/input) |
| GATGATTGTTCTCCCAGCTGATGAATTGAGTGCTTCGAGTAAACAAATTTTCCTAATCTTTCTGTTCAAGCGCCATCTAC | 0.897 RPM ratio (pull-down/input) |
| GATGATTGTTCTCCCAGCTGATGAATTTCTAGAGTCGAGTAAACAAATTTTCCTAATCTTTCTGTTCAAGCGCCATCTAC | 0.778 RPM ratio (pull-down/input) |
| GATGATTGTTCTCCCAGCTGATGAATTATGATCTTCGAGTAAACAAATTTTCCTAATCTTTCTGTTCAAGCGCCATCTAC | 0.948 RPM ratio (pull-down/input) |
| GATGATTGTTCTCCCAGCTGATGAATTGGAGCGATCGAGTAAACAAATTTTCCTAATCTTTCTGTTCAAGCGCCATCTAC | 0.898 RPM ratio (pull-down/input) |
| GATGATTGTTCTCCCAGCTGATGAATTCTTCGATTCGAGTAAACAAATTTTCCTAATCTTTCTGTTCAAGCGCCATCTAC | 0.798 RPM ratio (pull-down/input) |
| GATGATTGTTCTCCCAGCTGATGAATTGAATTAATCGAGTAAACAAATTTTCCTAATCTTTCTGTTCAAGCGCCATCTAC | 0.98 RPM ratio (pull-down/input) |
| GATGATTGTTCTCCCAGCTGATGAATTTAGTCTTTCGAGTAAACAAATTTTCCTAATCTTTCTGTTCAAGCGCCATCTAC | 0.944 RPM ratio (pull-down/input) |
| GATGATTGTTCTCCCAGCTGATGAATTGCAGGCCTCGAGTAAACAAATTTTCCTAATCTTTCTGTTCAAGCGCCATCTAC | 0.952 RPM ratio (pull-down/input) |
| GATGATTGTTCTCCCAGCTGATGAATTTGGTCGCTCGAGTAAACAAATTTTCCTAATCTTTCTGTTCAAGCGCCATCTAC | 0.873 RPM ratio (pull-down/input) |
| GATGATTGTTCTCCCAGCTGATGAATTTAGCCGATCGAGTAAACAAATTTTCCTAATCTTTCTGTTCAAGCGCCATCTAC | 0.85 RPM ratio (pull-down/input) |
| GATGATTGTTCTCCCAGCTGATGAATTAGTTACCTCGAGTAAACAAATTTTCCTAATCTTTCTGTTCAAGCGCCATCTAC | 0.984 RPM ratio (pull-down/input) |
| GATGATTGTTCTCCCAGCTGATGAATTAAGCCAGTCGAGTAAACAAATTTTCCTAATCTTTCTGTTCAAGCGCCATCTAC | 0.849 RPM ratio (pull-down/input) |
| GATGATTGTTCTCCCAGCTGATGAATTAGACTGCTCGAGTAAACAAATTTTCCTAATCTTTCTGTTCAAGCGCCATCTAC | 0.812 RPM ratio (pull-down/input) |

| Sequence | binding signal |
| --- | --- |
| GATGATTGTTCTCCCAGCTGATGAATTGGACGGGTCGAGTAAACAAATTTTCCTAATCTTTCTGTTCAAGCGCCATCTAC | 0.71 RPM ratio (pull-down/input) |
| GATGATTGTTCTCCCAGCTGATGAATTCTATGTATCGAGTAAACAAATTTTCCTAATCTTTCTGTTCAAGCGCCATCTAC | 1.27 RPM ratio (pull-down/input) |
| GATGATTGTTCTCCCAGCTGATGAATTCACTAAATCGAGTAAACAAATTTTCCTAATCTTTCTGTTCAAGCGCCATCTAC | 0.989 RPM ratio (pull-down/input) |
| GATGATTGTTCTCCCAGCTGATGAATTTAGTACTTCGAGTAAACAAATTTTCCTAATCTTTCTGTTCAAGCGCCATCTAC | 1.04 RPM ratio (pull-down/input) |
| GATGATTGTTCTCCCAGCTGATGAATTCTGTTCATCGAGTAAACAAATTTTCCTAATCTTTCTGTTCAAGCGCCATCTAC | 0.902 RPM ratio (pull-down/input) |
| GATGATTGTTCTCCCAGCTGATGAATTACATAAATCGAGTAAACAAATTTTCCTAATCTTTCTGTTCAAGCGCCATCTAC | 1.64 RPM ratio (pull-down/input) |
| GATGATTGTTCTCCCAGCTGATGAATTTTTCTTGTCGAGTAAACAAATTTTCCTAATCTTTCTGTTCAAGCGCCATCTAC | 1.1 RPM ratio (pull-down/input) |
| GATGATTGTTCTCCCAGCTGATGAATTCATTGAATCGAGTAAACAAATTTTCCTAATCTTTCTGTTCAAGCGCCATCTAC | 0.889 RPM ratio (pull-down/input) |
| GATGATTGTTCTCCCAGCTGATGAATTAGGGGATTCGAGTAAACAAATTTTCCTAATCTTTCTGTTCAAGCGCCATCTAC | 0.815 RPM ratio (pull-down/input) |
| GATGATTGTTCTCCCAGCTGATGAATTTTTTGGCTCGAGTAAACAAATTTTCCTAATCTTTCTGTTCAAGCGCCATCTAC | 0.855 RPM ratio (pull-down/input) |
| GATGATTGTTCTCCCAGCTGATGAATTGAACGTGTCGAGTAAACAAATTTTCCTAATCTTTCTGTTCAAGCGCCATCTAC | 0.863 RPM ratio (pull-down/input) |
| GATGATTGTTCTCCCAGCTGATGAATTCTCGCATTCGAGTAAACAAATTTTCCTAATCTTTCTGTTCAAGCGCCATCTAC | 1.16 RPM ratio (pull-down/input) |
| GATGATTGTTCTCCCAGCTGATGAATTCATGAATTCGAGTAAACAAATTTTCCTAATCTTTCTGTTCAAGCGCCATCTAC | 0.965 RPM ratio (pull-down/input) |
| GATGATTGTTCTCCCAGCTGATGAATTACATGGCTCGAGTAAACAAATTTTCCTAATCTTTCTGTTCAAGCGCCATCTAC | 1.05 RPM ratio (pull-down/input) |
| GATGATTGTTCTCCCAGCTGATGAATTGGAAGCCTCGAGTAAACAAATTTTCCTAATCTTTCTGTTCAAGCGCCATCTAC | 0.788 RPM ratio (pull-down/input) |
| GATGATTGTTCTCCCAGCTGATGAATTTATACCATCGAGTAAACAAATTTTCCTAATCTTTCTGTTCAAGCGCCATCTAC | 1.3 RPM ratio (pull-down/input) |
| GATGATTGTTCTCCCAGCTGATGAATTGGGAACGTCGAGTAAACAAATTTTCCTAATCTTTCTGTTCAAGCGCCATCTAC | 0.883 RPM ratio (pull-down/input) |
| GATGATTGTTCTCCCAGCTGATGAATTTCGTGTCTCGAGTAAACAAATTTTCCTAATCTTTCTGTTCAAGCGCCATCTAC | 0.885 RPM ratio (pull-down/input) |
| GATGATTGTTCTCCCAGCTGATGAATTGAACATTTCGAGTAAACAAATTTTCCTAATCTTTCTGTTCAAGCGCCATCTAC | 0.83 RPM ratio (pull-down/input) |
| GATGATTGTTCTCCCAGCTGATGAATTGAGAACGTCGAGTAAACAAATTTTCCTAATCTTTCTGTTCAAGCGCCATCTAC | 0.826 RPM ratio (pull-down/input) |
| GATGATTGTTCTCCCAGCTGATGAATTTGCGAGTTCGAGTAAACAAATTTTCCTAATCTTTCTGTTCAAGCGCCATCTAC | 0.91 RPM ratio (pull-down/input) |
